Laboratory results from publication PMC7435778, “Bidirectional Modulation of the Voltage-Gated Sodium (Nav1.6) Channel by Rationally Designed Peptidomimetics” (Molecules, 2020).
Where two headings read alike, the source gives them in different places. Starred links: 1 amine or outer side, 2 acyl side, 3 side chain; linkers in the order of their positions; H or OH if unused. Residues, ends and D or L forms follow the SMILES beside them. *: point of attachment. Adamantane1carbonyl = O=C(C12CC3CC(CC(C3)C1)C2)*; NH(1-Adamantyl) = C1C2CC3CC1CC(N*)(C2)C3; Cyclohexanecarbonyl = O=C(C1CCCCC1)*; Fmoc = O=C(OCC1c2ccccc2-c2ccccc21)*; Decanoyl = CCCCCCCCCC(=O)*; Cbz = O=C(OCc1ccccc1)*; Boc = CC(C)(C)OC(=O)*; CO = O=C([*:1])[*:2]; Bz = O=C(c1ccccc1)*; OtBu = CC(C)(C)O*; tBu = CC(C)(C)*

Experiments:
FGF14:Nav1.6 complex [1] = biological target: T1, FGF14:Nav1.6 complex (Homo sapiens, UniProt Q92915+Q9UQD0); conditions: for In-cell activity on FGF14:Nav1.6 complex assembly (in words): LCA screening
FGF14:Nav1.6 complex [2] = biological target: T1, FGF14:Nav1.6 complex; test: cell-based; conditions: for activity at 25 µM: 12 h, read-out: LCA (%Lum); for Emax: read-out: EMax (percent luminescence at the top plateau)
Nav1.6 C-terminal tail = Nav1.6 C-terminal tail (Homo sapiens, UniProt Q9UQD0)
FGF14:Nav1.6 complex [3] = biological target: T1, FGF14:Nav1.6 complex; design: expressed in transfected cells; conditions: cited from earlier work; for IMin: previously reported FLPK analogs, Figure 1A; for IC50: previously reported, read-out: IC50 (inhibition of FGF14:Nav1.6 complex assembly)

Row | Compound | In-cell activity on FGF14:Nav1.6 complex assembly (in words) (FGF14:Nav1.6 complex [1]; 25 µM) | activity at 25 µM (FGF14:Nav1.6 complex [2]) [%] | further results
1 | tert-Butyl (S)-5-(((S)-1-(((S)-1-(((S)-1-amino-3-methyl-1-oxobutan-2-yl)amino)-3-(4-(tert-butoxy)phenyl)-1-oxopropan-2-yl)amino)-3-(4-(tert-butoxy)phenyl)-1-oxopropan-2-yl)amino)-4-(((benzyloxy)carbonyl)amino)-5-oxopentanoate [Compound 24] | retained activity |  | LCA (%Lum) (FGF14:Nav1.6 complex [1]; 25 µM, 12 h, percent luminescence relative to per plate 0.5% DMSO controls, mean ± SEM): 111.5 ± 2.5%
2 | COC(=O)[C@@H](NC(=O)[C@H](Cc1ccc(OC(C)(C)C)cc1)NC(=O)[C@H](Cc1ccc(OC(C)(C)C)cc1)NC(=O)[C@H](CCC(=O)OC(C)(C)C)NC(C)=O)C(C)C [Compound 18, methyl (2S,5S,8S,11S)-11-(3-(tert-butoxy)-3-oxopropyl)-5,8-bis(4-(tert-butoxy)benzyl)-2-isopropyl-4,7,10,13-tetraoxo-3,6,9,12-tetraazatetradecanoate] (Ac-E(OtBu)Y(tBu)Y(tBu)V-OMe) | complete loss of in-cell activity | 104 ± 1.3 | 
3 | CC(C)[C@H](NC(=O)[C@H](Cc1ccc(OC(C)(C)C)cc1)NC(=O)[C@H](Cc1ccc(OC(C)(C)C)cc1)NC(=O)[C@H](CCC(=O)OC(C)(C)C)NC(=O)c1ccccc1)C(N)=O [Compound 19, tert-butyl (S)-5-(((S)-1-(((S)-1-(((S)-1-amino-3-methyl-1-oxobutan-2-yl)amino)-3-(4-(tert-butoxy)phenyl)-1-oxopropan-2-yl)amino)-3-(4-(tert-butoxy)phenyl)-1-oxopropan-2-yl)amino)-4-benzamido-5-oxopentanoate] (Bz-E(OtBu)Y(tBu)Y(tBu)V-NH2) |  | 132 ± 1.9 | Fold greater binding affinity toward Nav1.6 (Nav1.6 C-terminal tail; 19 compared to 12 and 17): about 4 fold; Fold increase in binding to Nav1.6 (Nav1.6 C-terminal tail; 19 relative to 17 (Ac to benzoyl)): 4 fold; koff Nav1.6 (Nav1.6 C-terminal tail; SPR, Langmuir 1:1 model): 0.015 s⁻¹; EC50 (FGF14:Nav1.6 complex [2]): 24.5 ± 1.7 µM; Emax (FGF14:Nav1.6 complex [2]): 192 ± 3.2%
4 | COC(=O)[C@@H](NC(=O)[C@H](Cc1ccc(OC(C)(C)C)cc1)NC(=O)[C@H](Cc1ccc(OC(C)(C)C)cc1)NC(=O)[C@H](CCC(=O)OC(C)(C)C)NC(=O)OCC1c2ccccc2-c2ccccc21)C(C)C [Compound 16, methyl (5S,8S,11S,14S)-5-(3-(tert-butoxy)-3-oxopropyl)-8,11-bis(4-(tert-butoxy)benzyl)-1-(9H-fluoren-9-yl)-14-isopropyl-3,6,9,12-tetraoxo-2-oxa-4,7,10,13-tetraazapentadecan-15-oate] (Fmoc-E(OtBu)Y(tBu)Y(tBu)V-OMe) | complete loss of in-cell activity | 102 ± 2 | 
5 | CC(C)[C@H](NC(=O)[C@H](Cc1ccc(OC(C)(C)C)cc1)NC(=O)[C@H](Cc1ccc(OC(C)(C)C)cc1)NC(=O)[C@H](CCC(=O)OC(C)(C)C)NC(=O)C1CCCCC1)C(N)=O [Compound 23, tert-Butyl (S)-5-(((S)-1-(((S)-1-(((S)-1-amino-3-methyl-1-oxobutan-2-yl)amino)-3-(4-(tert-butoxy)phenyl)-1-oxopropan-2-yl)amino)-3-(4-(tert-butoxy)phenyl)-1-oxopropan-2-yl)amino)-4-(cyclohexanecarboxamido)-5-oxopentanoate] (Cyclohexanecarbonyl-E(OtBu)Y(tBu)Y(tBu)V-NH2) |  | 93.8 ± 3.3 | 
6 | CC(C)[C@H](NC(=O)[C@H](Cc1ccc(OC(C)(C)C)cc1)NC(=O)OCC1c2ccccc2-c2ccccc21)C(N)=O [Compound 10, (9H-fluoren-9-yl)methyl ((S)-1-(((S)-1-amino-3-methyl-1-oxobutan-2-yl)amino)-3-(4-(tert-butoxy)phenyl)-1-oxopropan-2-yl)carbamate] (Fmoc-Tyr(tBu)-Val-NH2) | loss of activity | 92.9 ± 2.1 | 
7 | CC(C)[C@H](NC(=O)[C@H](Cc1ccc(OC(C)(C)C)cc1)NC(=O)[C@H](Cc1ccc(OC(C)(C)C)cc1)NC(=O)[C@H](CCC(=O)OC(C)(C)C)NC(=O)OCC1c2ccccc2-c2ccccc21)C(N)=O [Compound 15, tert-butyl (S)-4-((((9H-fluoren-9-yl)methoxy)carbonyl)amino)-5-(((S)-1-(((S)-1-(((S)-1-amino-3-methyl-1-oxobutan-2-yl)amino)-3-(4-(tert-butoxy)phenyl)-1-oxopropan-2-yl)amino)-3-(4-(tert-butoxy)phenyl)-1-oxopropan-2-yl)amino)-5-oxopentanoate] (Fmoc-E(OtBu)Y(tBu)Y(tBu)V-NH2) | significant loss of in-cell activity | 109 ± 2.5 | 
8 | CC(C)[C@H](NC(=O)[C@H](Cc1ccc(OC(C)(C)C)cc1)NC(=O)[C@H](Cc1ccc(OC(C)(C)C)cc1)NC(=O)[C@H](CCC(=O)OC(C)(C)C)NC(=O)C12CC3CC(CC(C3)C1)C2)C(N)=O [Compound 21, tert-Butyl (4S)-4-((1S,3R,5S)-adamantane-1-carboxamido)-5-(((S)-1-(((S)-1-(((S)-1-amino-3-methyl-1-oxobutan-2-yl)amino)-3-(4-(tert-butoxy)phenyl)-1-oxopropan-2-yl)amino)-3-(4-(tert-butoxy)phenyl)-1-oxopropan-2-yl)amino)-5-oxopentanoate] (Adamantane1carbonyl-E(OtBu)Y(tBu)Y(tBu)V-NH2) | abrogated in-cell activity | 101 ± 2.2 | 
9 | CC(=O)N[C@@H](CCC(=O)OC(C)(C)C)C(=O)N[C@@H](Cc1ccc(OC(C)(C)C)cc1)C(=O)N[C@@H](Cc1ccc(OC(C)(C)C)cc1)C(=O)N[C@H](C(N)=O)C(C)C [Compound 17, tert-butyl (S)-4-acetamido-5-(((S)-1-(((S)-1-(((S)-1-amino-3-methyl-1-oxobutan-2-yl)amino)-3-(4-(tert-butoxy)phenyl)-1-oxopropan-2-yl)amino)-3-(4-(tert-butoxy)phenyl)-1-oxopropan-2-yl)amino)-5-oxopentanoate] (Ac-E(OtBu)Y(tBu)Y(tBu)V-NH2) | markedly potentiated assembly of the FGF14:Nav1.6 complex | 128 ± 2.6 | EC50 (FGF14:Nav1.6 complex [2]): 12.5 µM; Emax (FGF14:Nav1.6 complex [2]): 153 ± 3.5%
10 | CC(C)C[C@H](NC(=O)[C@H](Cc1ccccc1)NC(=O)OCc1ccccc1)C(=O)N1CCC[C@H]1C(=O)N[C@@H](CCCCNC(=O)OC(C)(C)C)C(N)=O [ZL0177] (Cbz-FLPK(Boc)-NH2) |  |  | IMin (FGF14:Nav1.6 complex [3]): 7%; IC50 (FGF14:Nav1.6 complex [3]): 11 µM
11 | CC(C)[C@H](NC(=O)[C@H](Cc1ccc(OC(C)(C)C)cc1)NC(=O)[C@H](Cc1ccc(OC(C)(C)C)cc1)NC(=O)OCC1c2ccccc2-c2ccccc21)C(N)=O [Compound 12, (9H-fluoren-9-yl)methyl ((S)-1-(((S)-1-(((S)-1-amino-3-methyl-1-oxobutan-2-yl)amino)-3-(4-(tert-butoxy)phenyl)-1-oxopropan-2-yl)amino)-3-(4-(tert-butoxy)phenyl)-1-oxopropan-2-yl)carbamate] (Fmoc-Tyr(tBu)-Tyr(tBu)-Val-NH2) | markedly inhibited FGF14:Nav1.6 complex assembly | 31.1 ± 2 | IMin (percent luminescence at the bottom plateau) (FGF14:Nav1.6 complex [1]; dose response, ± SEM): 18.3 ± 1.2%; IC50 (FGF14:Nav1.6 complex [2]): 23.7 ± 0.7 µM
12 | CC(C)[C@H](NC(=O)[C@H](Cc1ccc(OC(C)(C)C)cc1)NC(=O)[C@H](Cc1ccc(OC(C)(C)C)cc1)NC(=O)[C@H](CCC(=O)OC(C)(C)C)NC(=O)NC12CC3CC(CC(C3)C1)C2)C(N)=O [Compound 20, tert-Butyl (S)-4-(3-((3R,5R,7R)-adamantan-1-yl)ureido)-5-(((S)-1-(((S)-1-(((S)-1-amino-3-methyl-1-oxobutan-2-yl)amino)-3-(4-(tert-butoxy)phenyl)-1-oxopropan-2-yl)amino)-3-(4-(tert-butoxy)phenyl)-1-oxopropan-2-yl)amino)-5-oxopentanoate] ({NH(1-Adamantyl)-CO}-E(OtBu)Y(tBu)Y(tBu)V-NH2) | abrogated in-cell activity | 95.3 ± 3.4 | 
13 | CCCCCCCCCC(=O)N[C@@H](CCC(=O)OC(C)(C)C)C(=O)N[C@@H](Cc1ccc(OC(C)(C)C)cc1)C(=O)N[C@@H](Cc1ccc(OC(C)(C)C)cc1)C(=O)N[C@H](C(N)=O)C(C)C [Compound 22, tert-Butyl (S)-5-(((S)-1-(((S)-1-(((S)-1-amino-3-methyl-1-oxobutan-2-yl)amino)-3-(4-(tert-butoxy)phenyl)-1-oxopropan-2-yl)amino)-3-(4-(tert-butoxy)phenyl)-1-oxopropan-2-yl)amino)-4-decanamido-5-oxopentanoate] (Decanoyl-E(OtBu)Y(tBu)Y(tBu)V-NH2) | retained activity | 123 ± 2.8 | EC50 (FGF14:Nav1.6 complex [2]): 47.5 ± 10.6 µM; Emax (FGF14:Nav1.6 complex [2]): 163 ± 6.5%
14 | COC(=O)[C@H](CCCCNC(=O)OCC1c2ccccc2-c2ccccc21)NC(=O)[C@@H]1CCCN1C(=O)[C@H](CC(C)C)NC(=O)[C@H](Cc1ccccc1)NC(C)=O [ZL181] (Ac-FLPK(Fmoc)-OMe) |  |  | IMin (FGF14:Nav1.6 complex [3]): 26%; IC50 (FGF14:Nav1.6 complex [3]): 63 µM
